Experimental data as given in article PMC12136788.
The list shows a part of the results.

T1: UNK ZnF1-6 (called full-length) (human, UniProt Q9C0B0 30-357)
T1 sequence: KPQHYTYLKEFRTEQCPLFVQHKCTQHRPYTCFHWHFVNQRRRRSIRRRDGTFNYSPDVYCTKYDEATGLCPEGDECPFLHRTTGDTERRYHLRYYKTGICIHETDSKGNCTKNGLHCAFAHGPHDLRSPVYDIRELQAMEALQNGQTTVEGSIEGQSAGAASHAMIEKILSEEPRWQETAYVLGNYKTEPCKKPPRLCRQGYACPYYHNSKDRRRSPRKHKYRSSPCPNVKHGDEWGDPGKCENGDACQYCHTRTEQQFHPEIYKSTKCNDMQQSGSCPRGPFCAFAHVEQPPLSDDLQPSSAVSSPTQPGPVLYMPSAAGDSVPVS

B1: chr2:46903789:46903890:-|3pUTR|ENSG00000180398|msi1|FALSE|unique (ssRNA)
RNA: GGGAGUUCUACAGUCCGACGAUCAAAUUUCUGCAGCUGGCUUGAAUUUCUCCCCAGAAAAUGGGUUUUUCUUUUCUAUUGCAUAGUCAGGCUGCAAAUUUCCAAACUUUUAUGCUUUGCUUCCCUUAUUUAUAAGGGAAUGCCCAACAGAGGAUUGAGCAUCA
B2: chr12:100341478:100341579:+|3pUTR|ENSG00000136021|unk|FALSE|unique (ssRNA)
RNA: GGGAGUUCUACAGUCCGACGAUCCUAUUCUCCUAUUGCUAAAUGUGUGAUAUAUAGAGAGGAUGUAUAAAAGGAAAUGGAAAUAGACUAUGUACUUGUCUGGUUUUUGUUUGUUUUUAUUUUGGAAUGCUUAUAAGCCUCCUUCAACAGAGGAUUGAGCAUCA
B3: chr19:14119889:14120036:-|3pUTR|ENSG00000105011|msi1|total|mutant (ssRNA)
RNA: GGGAGUUCUACAGUCCGACGAUCAGCAGACCCACUCCAGCUUUCUGGUGUCACAGGCGGGAAUGUCCGUCCGCCGGCCGACUCCGAUCCCAUUUCUGUCCUGCUCCCAGGAAGAUUCUCCGGUCCUCUUCAAUCCAGCAGCCCCAACAGAGGAUUGAGCAUCA
B4: chr11:72192224:72192325:+|CDS|ENSG00000110195|unk|FALSE|unique (ssRNA)
RNA: GGGAGUUCUACAGUCCGACGAUCAGACAUGGCUCAGCGGAUGACAACACAGCUGCUGCUCCUUCUAGUGUGGGUGGCUGUAGUAGGGGAGGCUCAGACAAGGAUUGCAUGGGCCAGGACUGAGCUUCUCAAUGUCUGCAUGAACAACAGAGGAUUGAGCAUCA
B5: chr2:1632407:1632508:-|3pUTR|ENSG00000130508|msi1|FALSE|unique (ssRNA)
RNA: GGGAGUUCUACAGUCCGACGAUCUUGGUAAGUGAUUGAUAAAAAUUGGUUGGUGUUUCAUGACAUGUGGACUUCUUUUGAAAUAGCAAGUCAAAUGUAGUGACCAAAUUGUGGAAGAGAUUUCUGUCAAAUAGGAAAUGUGUACAACAGAGGAUUGAGCAUCA
B6: chr1:10469171:10469279:-|CDS|ENSG00000160049|unk|total|mutant (ssRNA)
RNA: GGGAGUUCUACAGUCCGACGAUCGUGGAUGAUGACGAUUACUUUCUGUGUCUACCUUCCAAUACUAAGUUUGUGGCAUUGGCCCGUAAUGAGAAAUGGGCAUACAACAAUUCAGGUAAGAAACUCCCGCCAUGUAUAAAACGGCAACAGAGGAUUGAGCAUCA
B7: chr10:103999120:103999255:+|CDS|ENSG00000065613|unk|FALSE|unique (ssRNA)
RNA: GGGAGUUCUACAGUCCGACGAUCAUCUAAGGACAGACCCUAUGACUACAAAGCUGAUGUUUGGUCCCUGGGUAUCACUUUAAUAGAAAUGGCUGAGAUAGAACCACCUCAUCAUGAAUUAAAUCCAAUGCGAGUGCUGCUAAACAACAGAGGAUUGAGCAUCA
B8: chr7:128862928:128863052:+|CDS|ENSG00000128524|unk|total|mutant (ssRNA)
RNA: GGGAGUUCUACAGUCCGACGAUCUAAGCUCAUCGCAGUGAUCGGAGACGAGGACACGGUGACUGGUUUCCUGCUGGGCGGCACCGGGGAGCUUAACAAGAACCGCCAUCCCAAUUUCCUGGUGGUGGAGAAGGAUACAACCAUCAACAGAGGAUUGAGCAUCA
B9: chr17:18931026:18931127:+|3pUTR|ENSG00000141127|msi1|total|mutant (ssRNA)
RNA: GGGAGUUCUACAGUCCGACGAUCGAUACCUGCAAUUGAAAAGCCGAAAAGAUUAUACUGUCAAGUCCAGUAAAUGACAUUUUCCGAGAUGCUUUUGCCGACAAGCAUAUGGAAUAUGUGAUUGUAUUUAUUUUCUGCAACUAACAACAGAGGAUUGAGCAUCA
B10: chr16:31060842:31061067:-|three_prime_utr|ENSG00000167394|control|control|control (ssRNA)
RNA: GGGAGUUCUACAGUCCGACGAUCCCGGGAGCCCAGCCCCCAUCGGGGGCUUCCUGUACCUCCUUUUGCCUGGCUCUGCUCUUUAGACUCCAGAUCCCUACCCCUCAGCAACUAGCUCCCCUGUCGGCCAGCUAAGAGAGCUGGCAACAGAGGAUUGAGCAUCA
B11: chr5:93620789:93620892:-|3pUTR|ENSG00000113391|unk|FALSE|unique (ssRNA)
RNA: GGGAGUUCUACAGUCCGACGAUCCAGCCCCUCAUUAGAUUGUUUUCUUCCCAGAGCCCAGGGUCGUGAUAUAUACAUCUAAAUAGCGUUUUGCAUUAUUUCUAGAUGAGUGCAACUGUCAAAGCAAUAUGGGUUCACUGGUCGCAACAGAGGAUUGAGCAUCA
B12: chr10:15076158:15076259:-|3pUTR|ENSG00000176244|unk|FALSE|unique (ssRNA)
RNA: GGGAGUUCUACAGUCCGACGAUCAGAUCCCUUAAGAUAAAUAUCCCCCAAAACAGUGUACCUCUAUUCCCUGCAUAAAAAUUUAGAUUUGGAAUGGUAUGACCAGAGGAAUAGAUCCACUUCAUGUUACUACAACAACAAAACCAACAGAGGAUUGAGCAUCA
B13: chr18:9859767:9859850:+|3pUTR|ENSG00000168461|msi1_unk|FALSE|overlapping (ssRNA)
RNA: GGGAGUUCUACAGUCCGACGAUCUUGUUACCUAACCAACCUUCACUGAAAGGCAAAUUUAGUUCAGGAGGUUAGUUUUUAGCUAGCUUUGGAAGUAAGCCUUUAUUUAUUACUUUUUGGAGGAAAUCAGAGAAGUGUCAAUGGCAACAGAGGAUUGAGCAUCA
B14: chr8:93922960:93923061:+|CDS|ENSG00000164951|msi1|FALSE|unique (ssRNA)
RNA: GGGAGUUCUACAGUCCGACGAUCCGGCUCAUGGUCAGCAGUCACGCUGUCUAAUGACCACAAUGCUCAAAAUGAAAGAGAACUAGAACGGCUGAAAUUGGAACAUCCAAAGAGUGAGGCCAAGAGUGUCGUGAAACAGGAUCGCAACAGAGGAUUGAGCAUCA

What follows are binders tested against T1, UNK ZnF1-6 (called full-length) (assay: nsRBNS (natural sequence RNA bind-n-seq); RBNS binding buffer (assumed for nsRBNS): 25 mM Tris pH 7.5, 150 mM KCl, 3 mM MgCl2, 0.01% Triton X-100, 500 ug/ml BSA, 20 U/ml SUPERase-In, 4 C; UNK is unkempt and MSI1 is Musashi-1; names of the RNAs are library labels; protein concentration not given here; high values mean tight binding).
Binder B1 has a binding signal of 0.757 enrichment R.
B2 was tested, and the binding signal was 0.31 enrichment R.
B3 gave a binding signal of 0.84 enrichment R.
For B4, the binding signal was 0.965 enrichment R.
Binder B5 has a binding signal of 1.12 enrichment R.
B6 showed a binding signal of 0.543 enrichment R.
Binder B7 has a binding signal of 0.525 enrichment R.
For B8, the binding signal was 0.803 enrichment R.
Work on B9 yielded a binding signal of 0.359 enrichment R.
With B10 the binding signal was 0.865 enrichment R.
In the case of B11, the binding signal is reported as 0.861 enrichment R.
For B12, the binding signal was 0.582 enrichment R.
Binder B13 has a binding signal of 0.637 enrichment R.
B14 was tested, and the binding signal was 0.617 enrichment R.
